Measurements taken from paper PMC12136788.
The other results are listed elsewhere or left out.

B1: chr22:19452774:19452775:-_ENSG00000070010_ENST00000399523|hu_hu|hu_hu_hu_mus_False|38_38 (ssRNA)
RNA: GGGAGUUCUACAGUCCGACGAUCCUUCUCAUUGUAGUUGAUAGCAAUCACAUCUCCAGUCGUCAGACAGGCGAAGUUUCUCAAUGCAUUUUCUAAUACGGCUUUGGGGUUGGUAAUAUCCAGGAAGUCUGGGCUCUGAGGCUGCAACAGAGGAUUGAGCAUCA
B2: chr7:141441981:141441982:+_ENSG00000106028_ENST00000265304|hu_mus|hu_hu_hu_mus_False|58_78 (ssRNA)
RNA: GGGAGUUCUACAGUCCGACGAUCCUCAUGUCUUACAAACUGACGAAAUACCUGUAAUACAGGUCUUCGAAACAUGGCUUCUAUUUUUCUUACAACCUAAUCUUUAGGCUUUUCCUAAAGGAAAGAAAGAAAAGAGAAAAAUGACAACAGAGGAUUGAGCAUCA
B3: chr9:66245071:66245072:+_ENSMUSG00000038664_ENSMUST00000042824|mus_mus|FALSE|FALSE (ssRNA)
RNA: GGGAGUUCUACAGUCCGACGAUCUCCCGCCAGGGCCAGAGCAAGGUGAUUUGAAAGCAACUUCAGGCACAGCUUAAGAAAAUUAUGGUGUUCCCUUGAUGAAGGGAAAGGCAGUGGGGGAAUCUCACUGUUUAUUUUAUCACACAACAGAGGAUUGAGCAUCA
B4: 52357847_52357967_588_CDS_ENSMUSG00000003420_ENSMUST00000003512|mouse|control|control (ssRNA)
RNA: GGGAGUUCUACAGUCCGACGAUCUGUGGUCUCCUUCUCCCAAUACCAAGACACCUGAUUUUCCCACAUCCAGGCCCCACAGGGGUCAGCUUCCUGCCGCAGGCUGUUGUAGGUCAGAUACUGCUGAGGACCCAACCAGCCUGUCAACAGAGGAUUGAGCAUCA
B5: chrX:71549400:71549401:+_ENSMUSG00000019087_ENSMUST00000019231|mus_hu|mus_mus_mus_hu_False|38_88 (ssRNA)
RNA: GGGAGUUCUACAGUCCGACGAUCGCAGUAGGAAGAGGGAAGCUCUUCAUCCACUGUCGCUGCAGGGUGGGAAAGCAACAACACGGACACCGUCCCACCUCAAUUCCCCCCACUGGCACAGGGUCACACAAUCUGGGUCAAAGACAACAGAGGAUUGAGCAUCA
B6: chr7:157177620:157177621:+_ENSG00000105993_ENST00000429029|hu_mus|FALSE|FALSE (ssRNA)
RNA: GGGAGUUCUACAGUCCGACGAUCGCCCAUUCCACUGCCGCCAAAUGACGUUGAAGAAAAUGAAGUGAGACCCCCAUGACCUAGUGACCCAAAUGGAGUGAAGCCUGUAUCAAAAGCAGGAAAUCCACUUCCAAAAGAAGGAAACAACAGAGGAUUGAGCAUCA
B7: chr2:187541933:187541934:+_ENSG00000138448_ENST00000261023|hu_hu|FALSE|FALSE (ssRNA)
RNA: GGGAGUUCUACAGUCCGACGAUCAAAAAAGCCCAUCCUGUACAUUACAAAUACCAAAACAGCCAGUAGCAACAAUCCUGCUAGAACUGCUAAAAUGAUCACCCACACAGGCACAGGCAUGGGCGCUGGCUGAAUGCCCCAGGUCAACAGAGGAUUGAGCAUCA
B8: 132971832_132980583_1062_CDS_ENSG00000132294_ENST00000254624|human|control|control (ssRNA)
RNA: GGGAGUUCUACAGUCCGACGAUCGUGUCCUAGAAUCUCCUGGAUCACAUGGUGAGAAUACUGAGCCUGAAUGGAAUACAUUAUAAUUUUAAAGCAGUGAACUGCAAAUUCAUUGGGAUCCCACAGUUUGUGAUGAUCUAAAUGCAACAGAGGAUUGAGCAUCA
B9: chr4:95690885:95690886:+_ENSMUSG00000028572_ENSMUST00000156910|mus_mus|mus_mus_mus_hu_False|18_18 (ssRNA)
RNA: GGGAGUUCUACAGUCCGACGAUCUUUAGAAAAUGUUAAAUACCAUGCUAAAAUAUUUUCAAAGGCUUAUUUUAUUUUACCAGAAGUCACAGGCAAGCAGACACUACAAGAAUAUAUAAAUACAAACCUCAACAAUAUAACUGUCAACAGAGGAUUGAGCAUCA
B10: chr3:148802587:148802588:-_ENSG00000071794_ENST00000310053|hu_mus|hu_hu_hu_mus_False|1_8 (ssRNA)
RNA: GGGAGUUCUACAGUCCGACGAUCUCCAACAACUUGUCCUCUCAUAGUUCCAAAUAAAACCAAAUCUUGCUCUUCAUCACUCGUUAGGAAGUCAUCUGGAGGAAUAAUGUCUUGGAAUUCAAAAUGUGGAAAGAAAGUUGGAUACAACAGAGGAUUGAGCAUCA
B11: chr17:40359653:40359654:-_ENSG00000173757_ENST00000293328|hu_mus|FALSE|FALSE (ssRNA)
RNA: GGGAGUUCUACAGUCCGACGAUCCGGUGUGUAGUACUUAGAAUAUACUUCAUCCUUUGGCCGAUCAGGAAACACAUAUAUGAGGUAAUUCAGGUCCCCCAGGCGGUCAGCGAGGGACCGGAUAGAGAAGUCUCUAGUGGUAAACAACAGAGGAUUGAGCAUCA
B12: chr10:33214929:33214930:-_ENSG00000150093_ENST00000302278|hu_hu|motif|central (ssRNA)
RNA: GGGAGUUCUACAGUCCGACGAUCAACAAGUUCAUUAAAUACUUCUCCUUUAUUAGUAAGACUGAGCACAUUUUUGUAGCGGAAUGGGCUGGUGCAGUUCUGUUCACUUGUGCAAGGGUUCCUGAGCUUAGCUGGUGUUGUGCUCAACAGAGGAUUGAGCAUCA
B13: chr16:94690093:94690094:+_ENSMUSG00000040785_ENSMUST00000117648|mus_hu|motif|central (ssRNA)
RNA: GGGAGUUCUACAGUCCGACGAUCGGGCUGGGAUGACGGACACACAGCCUCGAUUCCAGGGGGAAAAAGUCUUAGUCGAUACGGAUUAAAAAGUGUUAAUGAUUUUUGAAAAUCAGAUUACAUCUAUAAAAGAUGAAAAGCAAACAACAGAGGAUUGAGCAUCA
B14: 106161250_106161370_348_3pUTR_ENSMUSG00000046079_ENSMUST00000060531|mouse|control|control (ssRNA)
RNA: GGGAGUUCUACAGUCCGACGAUCCCCUCAGGGCGCUCUCGAGGACUCGGCUGCGGGCAGGCUCCGGGGGCUGGAACCGCUGCGACGCGAGACUUCACUCCUCCAUCCUGGGAGCCGGCAGCACGUUGCAGUCAGCAGUGCACUCAACAGAGGAUUGAGCAUCA
B15: chr5:61681977:61681978:+_ENSG00000068796_ENST00000381103|hu_hu|FALSE|FALSE (ssRNA)
RNA: GGGAGUUCUACAGUCCGACGAUCCCACUGUCACAGACUUUAGUUCCGUUCAAUGAUAUGGCACAUCCUGCAAAAUUAACUAGUCACACACAAAAAAUGUCUCAAAUACAGUAAAAAUGUACACACAAAGGUAAUUUACAAUGACAACAGAGGAUUGAGCAUCA
B16: chr7:74379609:74379610:-_ENSMUSG00000030557_ENSMUST00000156690|mus_mus|FALSE|FALSE (ssRNA)
RNA: GGGAGUUCUACAGUCCGACGAUCGUAAGUGCCUGAUUUUGUGUAUGCAACACACACCCACACAUACACACACACUCACACCAACAUACAUAUAUAUAUGUAAAGGGAUAUAUAUGUAUGCAUGUACAUAUAAAUAUAUUGAACCAACAGAGGAUUGAGCAUCA
B17: 31192494_31192614_209_3pUTR_ENSMUSG00000029165_ENSMUST00000031057|mouse|control|control (ssRNA)
RNA: GGGAGUUCUACAGUCCGACGAUCCCACCUUUUCCACAUGGGCUAGGUUCCCUGAAUCAAAGCGAGAACUGAACAGCAAUCCCCCACAGCGCAGCUCCAUGGUGGGGCUGGGAAAGCAUCCUCUUGCCCCACACAGGCCCUGAGCAACAGAGGAUUGAGCAUCA
B18: chr14:89307221:89307222:+_ENSG00000165533_ENST00000346301|hu_mus|hu_hu_hu_mus_False|88_88 (ssRNA)
RNA: GGGAGUUCUACAGUCCGACGAUCUCCUGUUUGGUUAGUGCCAGGGAGUUUCAAAGAUGUGCCAGGGCGUGGGACCUGAGCAAUAGCAUUUUCAUCCAGGAUCAUUUCAGCAAUUCCUUCCUGGUCCACAUCAAUUUCAUCUAUCAACAGAGGAUUGAGCAUCA
B19: chr19:8913615:8913616:-_ENSMUSG00000071658_ENSMUST00000096259|mus_hu|mus_mus_mus_hu_False|38_78 (ssRNA)
RNA: GGGAGUUCUACAGUCCGACGAUCAGGGUACCAAAACCUUCUGCCUGAAAUGGGUGCCCCACCCUGCAGGGAGUUGCAGCUGAAAGUAUCUGAUGCACUGACAGUUACUAUACGAAAGGAGGCCCCUGGGGAGGGCCAGGCCAGCAACAGAGGAUUGAGCAUCA
B20: chr3:41266964:41266965:+_ENSG00000168036_ENST00000349496|hu_mus|FALSE|FALSE (ssRNA)
RNA: GGGAGUUCUACAGUCCGACGAUCGAUGGCCAGCAAGCCCUCGCGGUGGUGAGAAAGGUUGUGCAGAGUCCCAGCAGUACAACGAGCUGUCUCUACAUCAUUUGUAUUCUGCAUGGUGCGUACAAUGGCAGACACCAUCUGAGGCAACAGAGGAUUGAGCAUCA
B21: chr2:69032557:69032558:-_ENSMUSG00000005233_ENSMUST00000005365|mus_hu|motif|central (ssRNA)
RNA: GGGAGUUCUACAGUCCGACGAUCAUUGGCAAGAAAAGCUGAAAAAUUGUUGGUCUUCCUUACAUUCUCUUGAAAUUCUGCGGGGCCCUCAAGAUGAGGGGCACUAUCUGACACUUCAUAGUCCCUUGCUUCAUUGAGAUGUAACAACAGAGGAUUGAGCAUCA
B22: chr16:20684184:20684185:+_ENSMUSG00000045983_ENSMUST00000044783|mus_hu|FALSE|FALSE (ssRNA)
RNA: GGGAGUUCUACAGUCCGACGAUCUGGAGGACCGCCCCGACGCUUGUCACUGCCCUUGGCCAUGAGCUGCUGCACUUUGAUGUGCUCUCGAUGUUCUUCCAUCUCAGCCUCCUUAUGGAUCUGGUCAAUGGUCUUGGGACCCUGCAACAGAGGAUUGAGCAUCA

molecular target: T1, UNK ZnF1-3 (human, UniProt Q9C0B0 31-174); experiment: nsRBNS (natural sequence RNA bind-n-seq); RBNS binding buffer (assumed for nsRBNS): 25 mM Tris pH 7.5, 150 mM KCl, 3 mM MgCl2, 0.01% Triton X-100, 500 ug/ml BSA, 20 U/ml SUPERase-In, 4 C; UNK is unkempt and MSI1 is Musashi-1; names of the RNAs are library labels; protein concentration not given here; high values mean tight binding
T1 sequence: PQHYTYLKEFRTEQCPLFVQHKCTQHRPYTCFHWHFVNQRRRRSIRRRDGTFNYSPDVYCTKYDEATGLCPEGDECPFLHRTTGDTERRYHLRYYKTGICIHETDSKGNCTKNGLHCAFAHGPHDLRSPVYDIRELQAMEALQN

Binder	binding signal [enrichment R]
B1	0.912
B2	0.579
B3	1.21
B4	0.939
B5	0.955
B6	1.53
B7	0.775
B8	1.82
B9	1.49
B10	1.19
B11	1.33
B12	0.968
B13	0.901
B14	0.988
B15	1.26
B16	0.833
B17	1.48
B18	0.905
B19	2.15
B20	0.786
B21	0.748
B22	0.404
